± gives the uncertainty stated by the source. Whole data set: some 9,900 compounds, median “viability index relative to DMSO control” near 1, cut for the lowest 2% near 0.85. This is one part of the list.
Tested on: Plasmodium falciparum NF54 stage V gametocytes
Experiment: viability index relative to DMSO control (fraction); higher = less gametocyte killing
Conditions: 2.5 µM, incubation time: 72 h
Summary of the method: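 Compound at 2.5 µM was incubated for 72 hr at 37°C under low oxygen with P. falciparum NF54 stage V gametocytes (0.75% gametocytemia, 1.25% hematocrit, 10 µl, serum-free screening medium) in 1,536-well plates. Staining used 3 µl of 2.5 µM MitoTracker Red CMXRos plus 0.13% saponin for one to two hours, and red particles of 20–70 µm2 were counted in one imaged field per well. Each viability index is that count relative to the plate mean of solvent-only wells.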

[1] = library set: Broad Institute DOS
[2] = library set: Broad Institute Blood Stage

Row | Compound | viability index [1] | viability index [2]
1 | C[C@@H]1CCCCO[C@@H](CN(C)C(=O)NC2CCCCC2)[C@@H](C)CN([C@@H](C)CO)C(=O)c2cc(N(C)C)ccc2O1 | 1.14 ± 0.038 | 
2 | COc1cccc(-c2ccc([C@H]3[C@@H]4CN(S(=O)(=O)c5cn(C)cn5)C[C@H]3N4)cc2)c1 | 1.05 ± 0.015 | 
3 | CNC(=O)C[C@H]1CC[C@@H]2[C@@H](COc3ccc(NC(=O)c4ccccc4F)cc3C(=O)N2C)O1 | 1.14 ± 0.14 | 
4 | COC(=O)C[C@@H]1CC[C@H]2[C@H](COc3ccc(NC(=O)Nc4c(C)noc4C)cc3C(=O)N2C)O1 | 0.994 ± 0.12 | 
5 | N#C[C@@H]1[C@H](c2ccccc2)[C@H](CO)N1C(=O)c1ccc2c(c1)OCO2 | 1.03 ± 0.039 | 
6 | CS(=O)(=O)Nc1ccc2c(c1)[C@H]1C[C@H](CC(=O)NCc3cc(F)ccc3F)O[C@@H](CO)[C@H]1O2 | 1.077 ± 0.0009 | 
7 | C[C@H](NC(=O)C[C@@H]1C=C[C@H](NC(=O)c2cccnc2)[C@@H](CO)O1)c1ccccc1 | 1.098 ± 0.0088 | 
8 | C/C=C/c1cnc2c(c1)C(=O)N([C@@H](C)CO)C[C@@H](C)[C@H](CN(C)CC1CCOCC1)O2 | 0.943 ± 0.028 | 
9 | CCCNC(=O)N(C)C[C@@H]1Oc2ncc(C#CC3CCCCC3)cc2C(=O)N([C@H](C)CO)C[C@@H]1C | 0.96 ± 0.088 | 
10 | C[C@H](CO)N1C[C@H](C)[C@@H](CN(C)Cc2ccccc2C(=O)O)Oc2cc(-c3ccc(F)cc3)ccc2S1(=O)=O | 0.989 ± 0.089 | 
11 | O=C(NCC[C@H]1CC[C@@H](NS(=O)(=O)c2ccc(F)cc2)[C@@H](CO)O1)c1ccc2c(c1)OCO2 | 0.9435 ± 0.0062 | 
12 | CO[C@H](C(=O)N(C)C[C@H]1OCc2ccccc2-c2ccccc2C(=O)N([C@@H](C)CO)C[C@@H]1C)c1ccccc1 | 0.98 ± 0.046 | 
13 | O=C(Nc1ccccc1F)N1C[C@H]2[C@@H](c3ccccc31)[C@H](CO)N2C(=O)Cc1cccnc1 | 1.02 ± 0.081 | 
14 | CCCNC(=O)N1C[C@@]2(C1)CN([C@H](CO)c1[nH]c3cc(OC)ccc3c21)C(=O)c1ccccc1 | 1 ± 0.014 | 
15 | C[C@@H]1CN([C@@H](C)CO)C(=O)c2cccc(NC(=O)C3CCOCC3)c2O[C@@H]1CN(C)C(=O)Nc1cccc2ccccc12 | 0.974 ± 0.06 | 
16 | CS(=O)(=O)N1[C@@H](C#N)[C@H](c2ccc(-c3ccccc3F)cc2)[C@@H]1CO | 1.101 ± 0.0082 | 
17 | CC(C)[C@@H]1C(=O)NCC/C=C/C[C@@H](C)Oc2ccccc2C(=O)N1C.CC(C)[C@@H]1C(=O)NCC/C=C\C[C@@H](C)Oc2ccccc2C(=O)N1C | 0.97 ± 0.1 | 
18 | CCCNC(=O)C[C@H]1CC[C@@H]2[C@H](COc3ccc(NC(=O)CC)cc3C(=O)N2C)O1 | 1.11 ± 0.097 | 
19 | CC(C)[C@@H]1C/C=C\CCNC(=O)[C@@H](C)CC(=O)N1 | 1.05 ± 0.054 | 
20 | CN1c2ccc(-c3ccc(C#N)cc3)cc2[C@H]2[C@H](CCN2S(=O)(=O)c2ccc(F)cc2)[C@@H]1CO | 1.1 ± 0.071 | 
21 | C[C@H](CO)N1C[C@H](C)[C@H](CN(C)S(=O)(=O)c2ccc(F)cc2)OCCCC[C@H](C)Oc2ccc(N(C)C)cc2C1=O | 1.02 ± 0.088 | 
22 | COc1ccc([C@H]2C/C=C\C[C@H](c3ccc(F)cc3)NC(=O)CCC(=O)N2)c(OC)c1 | 1.016 ± 0.0087 | 
23 | COc1ccccc1S(=O)(=O)N(C)C[C@@H]1OCc2ccccc2-c2ccccc2C(=O)N([C@H](C)CO)C[C@@H]1C | 1.047 ± 0.0047 | 

Row | Compound | viability index [1] | viability index [2]
24 | COc1ccccc1C#Cc1ccc2c(c1)[C@H]1[C@H](CCN1S(=O)(=O)c1cn(C)cn1)[C@@H](CO)N2 | 1 ± 0.13 | 
25 | O=S(=O)(c1cccs1)N1CCCCN2[C@@H](CO)[C@@H](c3ccc(/C=C/c4ccccc4)cc3)[C@@H]2C1 | 1.04 ± 0.04 | 
26 | COCC(=O)N1[C@H](C#N)[C@H](c2ccc(C#CCC3CCCC3)cc2)[C@H]1CO | 1.09 ± 0.032 | 
27 | CCS(=O)(=O)Nc1ccc2c(c1)C(=O)N(C)[C@H]1CC[C@@H](CC(=O)NC3CCCCC3)O[C@@H]1CO2 | 0.93 ± 0.1 | 
28 | O=C(C1CCC1)N1C[C@@H]2[C@H](c3ccccc31)[C@H](CO)N2C(=O)Nc1cccc(F)c1 | 1.03 ± 0.12 | 
29 | COCC(=O)N1[C@@H]2CN(C(=O)Nc3ccccc3Cl)c3ccccc3[C@@H]2[C@@H]1CO | 1.12 ± 0.093 | 
30 | O=C(C[C@H]1C[C@H]2c3cc(NS(=O)(=O)c4ccc(F)cc4)ccc3O[C@H]2[C@@H](CO)O1)NCc1cccnc1 | 1.08 ± 0.015 | 
31 | Cc1ccc(S(=O)(=O)N(C)C[C@@H]2Oc3c(NS(C)(=O)=O)cccc3C(=O)N([C@H](C)CO)C[C@H]2C)cc1 | 0.949 ± 0.068 | 
32 | Cc1ccccc1S(=O)(=O)Nc1ccc2c(c1)C(=O)N(C)[C@H]1CC[C@@H](CC(=O)O)O[C@H]1CO2 | 0.956 ± 0.044 | 
33 | C[C@H]1CN([C@@H](C)CO)C(=O)c2ccccc2-c2ccccc2CO[C@H]1CN(C)C(=O)NC1CCCCC1 | 1.02 ± 0.011 | 
34 | CCCNC(=O)N1C[C@]2(CN(C2)C(=O)CN(C)C)c2c([C@@H]1CO)n(C)c1cc(OC)ccc21 | 0.965 ± 0.078 | 
35 | CN1[C@@H]2c3ccc(-c4cccnc4)c(=O)n3C[C@@H]2[C@@H](CO)[C@@H]1C(=O)N1CCc2ccccc2C1 | 1.066 ± 0.006 | 
36 | COCC(=O)N1[C@H](CO)[C@H](c2ccc(C#CC(C)C)cc2)[C@@H]1CNC(C)=O | 1.063 ± 0.0046 | 
37 | C[C@H]1CN([C@@H](C)CO)C(=O)CCCn2nncc2CO[C@H]1CN(C)Cc1cccc2c1OCCCO2 | 1 ± 0.079 | 
38 | COCC#Cc1ccc([C@H]2[C@@H](CO)N3CCCCN(C(=O)NC4CCCC4)C[C@H]23)cc1 | 1.037 ± 0.008 | 
39 | Cc1cc(C(=O)Nc2ccc3c(c2)C(=O)N(C)[C@H]2CC[C@H](CC(=O)O)O[C@@H]2CO3)no1 | 0.927 ± 0.12 | 
40 | C[C@H](CO)N1C[C@H](C)[C@H](CN(C)S(=O)(=O)c2ccc(F)cc2)OCc2ccccc2-c2c(n(C)c3ccccc23)C1=O |  | 0.942 ± 0.045
41 | C[C@@H]1CN([C@@H](C)CO)C(=O)Cc2cc(NS(=O)(=O)c3cccs3)ccc2O[C@H]1CN(C)CC1CCCCC1 | 0.98 ± 0.083 | 
42 | C[C@H]1CN([C@@H](C)CO)C(=O)CCCn2nncc2CO[C@H]1CN(C)C(=O)c1cc(-c2ccccc2)on1 | 0.977 ± 0.052 | 
43 | CN1C(=O)c2cc(NS(C)(=O)=O)ccc2OC[C@@H]2O[C@H](CC(=O)NCc3ccccc3)CC[C@@H]21 | 1.08 ± 0.038 | 
44 | O=C(NCC[C@H]1CC[C@@H](NS(=O)(=O)c2ccc(F)cc2)[C@H](CO)O1)c1ccc2c(c1)OCO2 | 0.942 ± 0.11 | 
45 | Cc1ccc(NC(=O)Nc2ccc3c(c2)C(=O)N(C)[C@@H]2CC[C@H](CC(=O)NCC(F)(F)F)O[C@@H]2CO3)cc1 | 1.21 ± 0.066 | 
46 | COc1ccccc1CNC(=O)C[C@@H]1C[C@@H]2c3cc(NC(=O)C4CCC4)ccc3O[C@@H]2[C@@H](CO)O1 | 1.01 ± 0.015 | 

Row | Compound | viability index [1] | viability index [2]
47 | O=C(Nc1ccc(F)cc1)N1CC(=O)N2[C@H](C1)[C@@H](c1ccc(C#Cc3cccnc3)cc1)[C@@H]2CO | 1.141 ± 0.0015 | 
48 | COc1ccc2c3c([C@@H](CO)NC[C@]33CCN(CC4CCCCC4)CC3)n(C)c2c1 | 0.949 ± 0.041 | 
49 | COCC#Cc1ccc([C@@H]2[C@@H](CO)N3C(=O)CN(C(=O)c4ccncc4)C[C@@H]23)cc1 | 1.06 ± 0.018 | 
50 | CC(C)C(=O)Nc1ccc2c(c1)C(=O)N(C)[C@H]1CC[C@H](CC(=O)Nc3ccc(Cl)cc3)O[C@@H]1CO2 | 1.07 ± 0.048 | 
51 | COc1ccc2c3c([C@H](CO)N(CC4CC4)C[C@]33CN(C3)S(=O)(=O)c3cn(C)cn3)n(C)c2c1 | 0.946 ± 0.015 | 
52 | CCCNC(=O)N(Cc1cccnc1)C[C@H]1N[C@H](CO)[C@@H]1c1ccccc1 | 1.021 ± 0.0074 | 
53 | C[C@@H]1CN([C@H](C)CO)C(=O)c2cc(NS(=O)(=O)c3cn(C)cn3)ccc2O[C@@H](C)CCCCO[C@H]1CN(C)C(=O)Nc1ccc(C(F)(F)F)cc1 | 1.14 ± 0.021 | 
54 | CNC[C@H]1OCCCC[C@H](C)Oc2ccc(NC(=O)Nc3ccc(OC)cc3)cc2C(=O)N([C@H](C)CO)C[C@H]1C | 1.02 ± 0.052 | 
55 | COc1ccc2c3c([nH]c2c1)[C@H](CO)N(Cc1cc(OC)cc(OC)c1)C[C@]31CN(C1)C(=O)Nc1c(C)noc1C | 1.03 ± 0.025 | 
56 | C[C@@H]1CN([C@@H](C)CO)C(=O)c2cc(-c3ccncc3)cnc2O[C@@H]1CN(C)C(=O)CN1CCOCC1 | 1.02 ± 0.04 | 
57 | C[C@@H]1CCCCO[C@H](CN(C)S(C)(=O)=O)[C@@H](C)CN([C@H](C)CO)C(=O)c2cc(NC(=O)NC3CCCCC3)ccc2O1 | 1.11 ± 0.12 | 
58 | COCC(=O)Nc1ccc2c(c1)OC[C@@H](C)N(C(=O)Nc1ccccc1F)C[C@@H](C)[C@H](OC)CN(C)C2=O | 0.996 ± 0.056 | 
59 | O=C(NC[C@H]1N[C@H](CO)[C@@H]1c1ccc(-c2ccccc2)cc1)c1cccc(F)c1 | 1 ± 0.041 | 
60 | Cc1cccc(-c2ccc([C@@H]3[C@@H](CO)N4CCCCN(S(=O)(=O)c5ccccc5F)C[C@H]34)cc2)c1 | 0.537 ± 0.053 | 
61 | C[C@@H]1CN([C@H](C)CO)C(=O)c2ccccc2-c2ccccc2CO[C@H]1CN(C)C(=O)Nc1cccc(C(F)(F)F)c1 | 0.918 ± 0.11 | 
62 | O=C(Nc1ccc2c(c1)[C@@H]1C[C@@H](CC(=O)N3CCCCC3)O[C@H](CO)[C@@H]1O2)NC1CCCCC1 | 1.06 ± 0.057 | 
63 | C[C@H]1CN([C@@H](C)CO)C(=O)c2cccc(NC(=O)C3CCOCC3)c2O[C@H]1CN(C)C(=O)Nc1cccc2ccccc12 | 1 ± 0.068 | 
64 | COc1ccccc1S(=O)(=O)N1CC[C@@H]2[C@H](CO)Nc3ccc(-c4ccc(C#N)cc4)cc3[C@@H]21 | 1.029 ± 0.008 | 
65 | COc1cccc(-c2cn(CC[C@@H]3CC[C@H](NS(=O)(=O)c4ccccc4Cl)[C@H](CO)O3)nn2)c1 | 1.04 ± 0.025 | 
66 | C[C@@H]1CN([C@H](C)CO)C(=O)c2cc(NC(=O)Cn3cnnn3)ccc2O[C@@H]1CN(C)Cc1ccc(C(=O)Nc2ccccc2N)cc1 | 0.985 ± 0.063 | 
67 | C[C@@H]1CCCCO[C@@H](CN(C)C(=O)C2CCCCC2)[C@@H](C)CN([C@H](C)CO)C(=O)c2cc(NS(=O)(=O)c3ccccc3)ccc2O1 | 0.927 ± 0.072 | 
68 | O=C(c1ccccc1F)N1CC(=O)N2[C@H](C1)[C@@H](c1ccc(-c3cccnc3)cc1)[C@@H]2CO |  | 0.866 ± 0.049
69 | O=C(C[C@H]1CC[C@@H]2NC[C@H](O)COC[C@H]2O1)Nc1ccc(-c2ccccc2)cc1 | 1.0439 ± 3.9e-05 | 

Source: the supplement of paper PMC4723716
